Assay results taken from paper PMC10686051 (Nature structural & molecular biology, 2023).

B1: DYNLL1 wild-type recombinant protein (natural protein)
chain: not shown
B2: DYNLL[…]A recombinant protein (natural protein)
chain: not shown

Molecular target: the molecule itself
Experiment: SEC + other: SEC-SAXS

Protein | stoichiometry N
B1 | 2
B2 | 2
